# Measurements from the supplement of paper PMC8047034.
# Where a name gives a salt, the structure may show the parent alone. Some of the results follow. Single values are uncertain, as repeats are few or missing.
# Tested on: OVCAR4
# Experiment: log2 surviving fraction (library drug vs vehicle, or drug + carboplatin vs carboplatin alone; relative to plate median); ovarian cancer lines: OVCAR4 is platinum-sensitive and Ov4Carbo platinum-resistant; higher = more cell survival
# Conditions: library drug concentration 10 µM; 7 days; carboplatin co-treatment 0 µM
row,SMILES,log2 surviving fraction
1,CC1CCc2cc(F)cc3c(=O)c(C(=O)O)cn1c23 (centres undefined) [Flumequine],0.633
2,CN1CCC(=C2c3ccccc3C=Cc3ccccc32)CC1 [Cyproheptadine HCl (Periactin)],-4.11
3,COC(=O)Nc1nc2cc(Sc3ccccc3)ccc2[nH]1 [Fenbendazole (Panacur)],-7.08
4,N[C@@H](Cc1ccc(O)c(O)c1)C(=O)O [Levodopa (Sinemet)],-2.43
5,CCCN[C@H]1CCc2nc(N)sc2C1 [Pramipexole dihydrochloride monohydrate],-0.883
6,NS(=O)(=O)c1cc(Cl)c(Cl)c(S(N)(=O)=O)c1 [Dichlorphenamide (Diclofenamide)],1.8

# Same assay, conditions: library drug concentration 10 µM; 7 days; carboplatin co-treatment 5 µM
row,SMILES,log2 surviving fraction
1,"Cn1ccnc1S [Methimazole (Tapazole, Northyx)]",2.28
2,COC1=C(OC)C(=O)C(CCCCCCCCCCO)=C(C)C1=O [Idebenone],-0.447
3,C[C@H]1C[C@H]2[C@@H]3CCC4=CC(=O)C=C[C@]4(C)[C@@]3(F)[C@@H](O)C[C@]2(C)[C@@]1(O)C(=O)CO [Betamethasone (Celestone)],0.609
4,C[C@@H](O)[C@H]1C(=O)N2C(C(=O)OCOC(=O)C(C)(C)C)=C(SC3CN(C4=NCCS4)C3)[C@H](C)[C@H]12 [Tebipenem pivoxil (L-084)],0.309
5,O=C(Oc1ccccc1C(=O)O)c1ccccc1O [Sasapyrine],-0.297
6,COc1ccc(CC(C)NCC(O)c2ccc(O)c(NC=O)c2)cc1 (centres undefined) [Formoterol hemifumarate],0.145
7,Oc1cc(O)c(Cl)cn1 [Gimeracil],0.348
8,C[C@]12C=CC(=O)C=C1CC[C@H]1[C@@H]3C[C@@H](O)[C@](O)(C(=O)CO)[C@@]3(C)C[C@H](O)[C@@]12F [Triamcinolone (Aristocort)],-0.877
9,CN(C)CCOC(C)(c1ccccc1)c1ccccn1 (centres undefined) [Doxylamine Succinate],0.628
10,CN(C)CCC=C1c2ccccc2CCc2ccccc21 [Amitriptyline HCl],-1.65
11,CCOC(=O)N1CCC(=C2c3ccc(Cl)cc3CCc3cccnc32)CC1 [Loratadine],-0.276
12,COc1ccc(-c2nc3cc(C4=NNC(=O)CC4C)ccc3[nH]2)cc1 (centres undefined) [Pimobendan (Vetmedin)],-3.27
13,C#C[C@]1(O)CC[C@H]2[C@@H]3CCc4cc(OC)ccc4[C@H]3CC[C@@]21C [Mestranol],-1.27
14,OC(c1ccccc1)(c1ccccc1)C1CCNCC1 [Azacyclonol],-0.355
15,COc1cc2nc(N3CCN(C(=O)C4CCCO4)CC3)nc(N)c2cc1OC (centres undefined) [Terazosin HCl (Hytrin)],-0.701
16,CCn1cc(C(=O)O)c(=O)c2ccc(C)nc21 [Nalidixic acid (NegGram)],0.493
17,CC=CC1=C(C(=O)O)N2C(=O)[C@@H](NC(=O)[C@H](N)c3ccc(O)cc3)[C@H]2SC1 [Cefprozil hydrate (Cefzil)],-0.12
18,CCOc1nc2cccc(C(=O)O)c2n1Cc1ccc(-c2ccccc2-c2noc(=O)[nH]2)cc1 [Azilsartan (TAK-536)],0.325
19,Nc1ccc(O)c(C(=O)O)c1 [Mesalamine (Lialda)],-0.21
20,COc1c(N2C[C@@H]3CCCN[C@@H]3C2)c(F)cc2c(=O)c(C(=O)O)cn(C3CC3)c12 [Moxifloxacin hydrochloride],0.821
21,Cc1onc(-c2c(Cl)cccc2Cl)c1C(=O)N[C@@H]1C(=O)N2[C@@H]1SC(C)(C)[C@@H]2C(=O)O [Dicloxacillin Sodium],0.739
22,"Cn1cnc([N+](=O)[O-])c1Sc1ncnc2[nH]cnc12 [Azathioprine (Azasan, Imuran)]",-1.52
23,CCOc1ccc(NC(C)=O)cc1 [Phenacetin],0.494
24,CC(C)(O/N=C(\C(=O)N[C@@H]1C(=O)N2C(C(=O)[O-])=C(C[n+]3ccccc3)CS[C@H]12)c1csc(N)n1)C(=O)O [Ceftazidime Pentahydrate],-0.00321
25,NC(CO)(CO)CO [Trometamol],0.00589
26,O=C(NC(Cc1cc(=O)[nH]c2ccccc12)C(=O)O)c1ccc(Cl)cc1 (centres undefined) [Rebamipide],-0.454
27,O=C1NC(=O)C(c2ccccc2)(c2ccccc2)N1 [Phenytoin (Lepitoin)],0.234
28,N[C@@H](Cc1cc(I)c(Oc2cc(I)c(O)c(I)c2)c(I)c1)C(=O)O [L-Thyroxine],0.429
